Consider 22 molecules from PMC12136788.

This is one part of the list.

B1: 16684005_16685927_4424_CDS_ENSG00000145555_ENST00000513610|human|control|control (ssRNA)
RNA: GGGAGUUCUACAGUCCGACGAUCGGCACACACAGAAUCAAUCAGCCCCACAUCCAAGGUGCCCACAGCAUUCUGUGGGUUUGCCUGCUCAUCAUGCAUCUCCUGGAUCUCCUGGUCCGUGGACGCGUGGACCUGACUCAGCACCAACAGAGGAUUGAGCAUCA
B2: chr7:108212191:108212192:+_ENSG00000128590_ENST00000249356|hu_mus|FALSE|FALSE (ssRNA)
RNA: GGGAGUUCUACAGUCCGACGAUCGUUAUCAUUAAAAUGCAGAUUGCAAAGACGAAAACUGACUGUGGAGUAGCCAUUUCUAAUAACCUGUGCGCCCCGACGCAGCUUCUCCACAGCGCGGCGGCCCGGCUCCGGUUCCCUGACCAACAGAGGAUUGAGCAUCA
B3: chr2:198351390:198351391:-_ENSG00000144381_ENST00000345042|hu_hu|hu_hu_hu_mus_False|18_28 (ssRNA)
RNA: GGGAGUUCUACAGUCCGACGAUCUCAUUCCCACCCUCCACAGAAAGGCUGCUUCUGAACUCUCAUGUGGUGACACAGCGCUACAGUCCUGAUGCUCACAGAACAGUAGUAAAAAUGCCUCAGUGAUAGUUGAAAGCAGGACACCAACAGAGGAUUGAGCAUCA
B4: chr1:40030818:40030819:+_ENSMUSG00000026074_ENSMUST00000163854|mus_mus|FALSE|FALSE (ssRNA)
RNA: GGGAGUUCUACAGUCCGACGAUCUGGAGGGCUCUUCUUAAUGAAAGCACCAUAGUACGUGGCAAUAUUUCGAUGAUGAGAAUACUUCUUCAGCAUAUUUAUCUCCAGUUUGAUUUCUUCCUCUUCAUCCUCGGUGACGUCCAUCAACAGAGGAUUGAGCAUCA
B5: 116059970_116060090_329_5pUTR_ENSMUSG00000020777_ENSMUST00000066587|mouse|control|control (ssRNA)
RNA: GGGAGUUCUACAGUCCGACGAUCUGGAUUGAAGGUGGCGGCGGCCCGCUCCUUGCGCAGAUCGGGAUUCAUGACGGAGACCAGUGCUGGGGGCAGAGGAGGUGGCGACAGAAGUGACAGGCACCAAAGCGAUGACAACCUGUCCAACAGAGGAUUGAGCAUCA
B6: chr14:76904430:76904431:+_ENSMUSG00000022010_ENSMUST00000022587|mus_mus|mus_mus_mus_hu_True|18_58 (ssRNA)
RNA: GGGAGUUCUACAGUCCGACGAUCUGCAGCCAAAAACACCCUCGUGGAAAAAAAGAGGGAACACCAGCAGCCUUGUACAAACUAGAUAAAAUCUUCUGGCUUUCCGCAGCCCAGGGAGUGAGAACGGACGGCAGCCCUAAUUUACAACAGAGGAUUGAGCAUCA
B7: 55603627_55603862_1926_CDS_ENSG00000125503_ENST00000592993|human|control|control (ssRNA)
RNA: GGGAGUUCUACAGUCCGACGAUCGCCGCAGCGUGGUCUCGGUCAGGGCCUCGCGAAGCCGCUCGUUCUCCCUGCGCAGCUCUGCAUACAGCGUCCUAAAGCCUCCGUCUGGCUCUUCCGAUUCUGGCUCAGGUUCUGGGUUGACAACAGAGGAUUGAGCAUCA
B8: chrX:12728449:12728450:+_ENSMUSG00000031010_ENSMUST00000089302|perfect_dup|FALSE|FALSE (ssRNA)
RNA: GGGAGUUCUACAGUCCGACGAUCAUGUCCUAAAGCUUUUAAAGCUUCAUCUAAACUAUCCACCAAUGAAUUAAAAAAUUCUAAAGCAUCGUGUUGUUCACGCAGAUUAACAGGCUCACCCCAAAGCCUGAACUGUUUCCAAAACAACAGAGGAUUGAGCAUCA
B9: chr2:202488911:202488912:-_ENSG00000155755_ENST00000286196|hu_mus|hu_hu_hu_mus_False|8_88 (ssRNA)
RNA: GGGAGUUCUACAGUCCGACGAUCAUUGAAACAUUUUUCAUAAUCUCAGAGAUGUUUUCAGCAUUAUGUAACAAAAGCUCAAUUGUAAAUACAUGUAUCUUAUAAAAAUACACUUAAAAACACGAGUAAAAAUGGGAGGCGCCACAACAGAGGAUUGAGCAUCA
B10: 167813544_167813664_159_5pUTR_ENSG00000173905_ENST00000470487|human|control|control (ssRNA)
RNA: GGGAGUUCUACAGUCCGACGAUCGACUCCGGGCCGCGCCCCCGUGCGGCCUGCCCAAUGGGUGGAAGGGUGGGGGCCAGCUGUCUCGGCUGGUUUUGGGGACGGCACAGCGGUGUCACUGACGGGUCGGCUGGUGCCUCUGCCCAACAGAGGAUUGAGCAUCA
B11: 120591706_120593086_3661_CDS_ENSG00000089154_ENST00000300648|human|control|control (ssRNA)
RNA: GGGAGUUCUACAGUCCGACGAUCGCCACACCUGGCUUCCCACUGAUCUGGAGGAGAUUCUGAAAUAACUCGUCCCAAAGCAUCCAGCACUGGGGGCGGCCGGUAGAGCUUUUCCUGGUAAAUCUCCAUGAGCCUGCCCAUAACCAACAGAGGAUUGAGCAUCA
B12: 92955481_92955601_2545_3pUTR_ENSG00000113391_ENST00000395965|human|control|control (ssRNA)
RNA: GGGAGUUCUACAGUCCGACGAUCUUGUUCAAACUGUAGGGCUAAACCCUACAGAGGAAGCGGAGUGCUAAAAAUUAUACCAUUGGACUGAGAGAAGAAAUUCUUUCACACCAAGUCCUUCUCUUCUUGUUAAAGCAGAAAACUCAACAGAGGAUUGAGCAUCA
B13: chr16:84831616:84831617:-_ENSMUSG00000022890_ENSMUST00000023608|mus_mus|FALSE|FALSE (ssRNA)
RNA: GGGAGUUCUACAGUCCGACGAUCUCCUCCAGAUGCCUGUCGCUUUGAUUUGUACUCUCUUAUCUUGUCCACGAAGAGUUUCUGUACAGGAUCAAGUUCCUUAUUAAAGGCCACAGCUGUAACACCAAUGUUCCUCUUCAAAUGCAACAGAGGAUUGAGCAUCA
B14: chr4:57314706:57314707:+_ENSG00000128050_ENST00000264221|hu_mus|hu_hu_hu_mus_True|78_98 (ssRNA)
RNA: GGGAGUUCUACAGUCCGACGAUCCAGAAUUUCAAAAAUAGCCUGUGUGGCAUGACUCAUGAUAUCCACUUCAGUCUGCCCUAUAACAAGGCCAGCAAAACAGAAUUUUGCAGCAAUGAGUUGCUCCUCAGACCACUGUGGAUCCAACAGAGGAUUGAGCAUCA
B15: 20174337_20175353_674_CDS_ENSG00000118965_ENST00000281405|human|control|control (ssRNA)
RNA: GGGAGUUCUACAGUCCGACGAUCUCCAGCAAUGCUGAUAGCUCCAGUGACAUUCACCAAACAACUCAGUUUCAUUUUUAUCAUAAAAUUUCCUUGAUUAUCGUAAAUGUGUAUUUCCCCAUUUGCCAUUCCAAAAAGUAAGACCAACAGAGGAUUGAGCAUCA
B16: chr6:82862619:82862620:-_ENSMUSG00000000627_ENSMUST00000000641|mus_hu|FALSE|FALSE (ssRNA)
RNA: GGGAGUUCUACAGUCCGACGAUCUAUCUUUAUACUGCUCGUAUAUCCUAUGACUGUUCCCCUUCUGUUGUUCCCUAAUCAUUAGAAUGUUGUUGAUUUUUAAUGGGAGCCAAGGAAAUGGGGUACAGCCUACACUCCAGCCAGCAACAGAGGAUUGAGCAUCA
B17: chr10:22606824:22606825:+_ENSG00000148444_ENST00000456711|hu_mus|FALSE|FALSE (ssRNA)
RNA: GGGAGUUCUACAGUCCGACGAUCGCAAGUUGCAGCUGCUGCAUGACAAUGCUUUAAAACCACUGGGUCGAUCUGUUUCAAGUAUGGGUGAUCUAGCGCGGCCUCGUCCGCCCGGGCGUCCAGCAGGCUCUGGAAAGCCGCCCGCAACAGAGGAUUGAGCAUCA
B18: chr8:98253062:98253063:-_ENSMUSG00000036550_ENSMUST00000098473|mus_mus|motif|central (ssRNA)
RNA: GGGAGUUCUACAGUCCGACGAUCGGUUUCCAACACAUGCUCGGGUGCAUUGAGCUCCAACAGCAGCAUGAUAAAAAUCCGGUGGUACGGAAGUUGCUGAAAUUCACUCUGCCGAACAUCAUGAUCCUGUAGGAGAACUCCCACCAACAGAGGAUUGAGCAUCA
B19: chr4:140556289:140556290:+_ENSMUSG00000036622_ENSMUST00000037055|mus_mus|mus_mus_mus_hu_False|48_88 (ssRNA)
RNA: GGGAGUUCUACAGUCCGACGAUCGAUGGAGCUCACCAGGCCCCCUUUGGCUGUGCAGAACCCUGUGCGGGUCACCACUGCCAGGACACGGGGUCCCACAUAGGCCCGGGCCUGCAAGAUGAGGGUCCCGCAGAAGAGUGUGUGCAACAGAGGAUUGAGCAUCA
B20: 127511639_127515221_873_CDS_ENSMUSG00000074238_ENSMUST00000051737|mouse|control|control (ssRNA)
RNA: GGGAGUUCUACAGUCCGACGAUCGCGCUCCCUCAUGGGCAGCAUCCUGUUCAUUCCUUCUUCAUCUUCCCACUCUAGGUCUAAGGAGGUGCUGUCGUCAUUUCCACUCGUUGAUUUGGUUUUGGUCAUCAGGUCACAGCUGCUCAACAGAGGAUUGAGCAUCA
B21: chr8:117878989:117878990:-_ENSG00000164754_ENST00000297338|hu_hu|hu_hu_hu_mus_True|48_108 (ssRNA)
RNA: GGGAGUUCUACAGUCCGACGAUCCCAGAGGCCCUCUUUUACUGAGGACAAAAUGUGCGUAGAACAUUUUUCUUAUUUGCUAUGAAAACAGAAGAAACCUGGAUCUCGGCGGGGAGCCGGGAGGGGUGGGUGGCCCGGGGAGGGCAACAGAGGAUUGAGCAUCA
B22: chr1:39494564:39494565:+_ENSG00000168653_ENST00000372967|hu_hu|hu_hu_hu_mus_True|68_68 (ssRNA)
RNA: GGGAGUUCUACAGUCCGACGAUCAUGCAUUCGCCUCAUCGUUUUGUACCGAAGCAAGCACUCUUCGAAAUCAUCAUACUCUAUCUUGCACUCCUUUUUCGCCCGGGUCCCACCGAUCCCGUGUGCACACUCUAUCCACUCUUUCAACAGAGGAUUGAGCAUCA

The target in the assay is T1, UNK ZnF1-3 (human, UniProt Q9C0B0 31-174).
T1 sequence: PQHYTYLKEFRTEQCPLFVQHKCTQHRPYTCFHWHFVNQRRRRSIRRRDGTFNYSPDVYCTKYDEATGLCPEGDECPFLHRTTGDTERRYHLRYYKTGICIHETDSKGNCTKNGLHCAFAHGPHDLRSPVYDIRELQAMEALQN
Kind of assay: nsRBNS (natural sequence RNA bind-n-seq); RBNS binding buffer (assumed for nsRBNS): 25 mM Tris pH 7.5, 150 mM KCl, 3 mM MgCl2, 0.01% Triton X-100, 500 ug/ml BSA, 20 U/ml SUPERase-In, 4 C; UNK is unkempt and MSI1 is Musashi-1; names of the RNAs are library labels; protein concentration not given here; high values mean tight binding.
Turning to B1, the binding signal was 0.684 enrichment R.
For the molecule B2, the binding signal stood at 1.12 enrichment R.
B3 returned a binding signal of 1.34 enrichment R.
The value for B4 was 0.836 enrichment R; that for B5 was 1.28 enrichment R.
Molecule B6 had a binding signal of 1.78 enrichment R.
The value for B7 was 0.589 enrichment R.
The value for B8 was 1.31 enrichment R.
The value for B9 was 0.687 enrichment R.
Regarding B10, the binding signal came out at 0.792 enrichment R.
For B11 the value was 1.38 enrichment R; for B12, 0.672 enrichment R; for B13, 0.855 enrichment R.
For B14 the value was 0.937 enrichment R; for B15, 1.53 enrichment R; for B16, 0.526 enrichment R.
B17: the binding signal was 0.942 enrichment R.
The value for B18 was 1.14 enrichment R.
The value for B19 was 1.78 enrichment R; that for B20 was 0.578 enrichment R; that for B21 was 1.78 enrichment R.
For B22 the value was 0.655 enrichment R.
